# Experimental data reported in PubChem BioAssay AID1346428 (National Center for Advancing Translational Sciences (NCATS), 2018).
# “And” between values parts separate entries of the source, which are not always exact repeats. Equal values may be shown once. The whole screen tested about 48,000 compounds, of which about 1,200 (2.5%) were called active. Not shown: some 2% with an inconclusive outcome.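 Rule for the calls: active = activation of at least 60% and not above a set upper limit (about 1 call in 100 departs from these limits); inconclusive = activation of 40% to 60%, or above that upper limit; inactive = activation under 40%.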 The list shows a part of the results. Some compounds were tested as several samples or in several runs, with calls that do not always agree.
# Target: Probable G-protein coupled receptor 32 (Homo sapiens) (UniProt O75388)
# Chain of UniProt O75388 (O75388 whole entry, looked up): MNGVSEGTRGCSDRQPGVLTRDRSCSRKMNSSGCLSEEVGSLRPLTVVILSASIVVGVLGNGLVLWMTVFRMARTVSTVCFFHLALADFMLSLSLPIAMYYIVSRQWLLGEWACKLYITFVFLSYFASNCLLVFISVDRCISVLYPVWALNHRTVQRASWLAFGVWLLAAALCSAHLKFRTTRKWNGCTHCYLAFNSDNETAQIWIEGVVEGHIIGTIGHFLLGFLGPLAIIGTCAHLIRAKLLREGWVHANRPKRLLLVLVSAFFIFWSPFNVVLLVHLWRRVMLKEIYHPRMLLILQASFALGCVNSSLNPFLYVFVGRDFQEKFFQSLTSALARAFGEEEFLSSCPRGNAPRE
# Test: qHTS for Agonists of Human Resolvin D1 Receptor DRV1; note: 0% is about no effect
# Conditions: CHO-K1 GPR32 beta-arrestin PathHunter luminescence, 90 min; at 76.9 µM; stronger effect = higher value; zero percent set by DMSO-only wells
# Procedure, shortened: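 CHO-K1 cells stably expressing ProLink-tagged GPR32 and Enzyme Activator-tagged beta-arrestin were seeded at 2,500 cells/well overnight, exposed to compounds for 90 min at 37 °C, then read by beta-Gal complementation chemiluminescence after 1 h detection reagent.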
row,SMILES,activation
1,O=C(NCc1ccc(Cl)cc1)c1cc2cccc3c2n1CCS3,inactive: -19.2%
2,COc1ccccc1N1CCN(c2c3c(nc4nncn24)CCC3)CC1,inactive: -15.6%
3,CC(C)(C)NC(=O)Cn1cc(S(=O)(=O)Cc2ccccc2Cl)c2ccccc21,inactive: -10.3%
4,Cc1cccc(-n2c(=O)c3c(c4cc(C)ccc4n3C)n(CC(=O)Nc3ccc(C)c(C)c3)c2=O)c1,inactive: -3.45%
5,COC(=O)c1sccc1S(=O)(=O)N(CC(=O)NCc1ccc(F)cc1)c1ccccc1,inactive: -3.71%
6,Cc1cccc(NC(=O)Cn2c(=O)n(Cc3nc(-c4ccccc4)no3)c(=O)c3ccccc32)c1,inactive: 0.717%
7,COc1ccc(C)cc1NS(=O)(=O)c1ccc2c(c1)CCCN2C(C)=O,inactive: -15.2%
8,CCOC(=O)Cn1c(=N)n(CCOc2ccc(OC)cc2)c2ccccc21,inactive: 22.9%
9,COc1ccc(-c2nc(SCC(=O)NCC3CCCO3)c(-c3ccc(C)cc3)[nH]2)cc1OC (configuration not stated),inactive: -23.8%
10,C#CCN(C)CCCOc1ccc(Cl)cc1Cl,inactive: 2.13% and inactive: -2.6%
11,CCCCNC(=O)CN1CCN(c2ccc(NC(=O)c3ccc(OC)cc3)cc2C(=O)O)CC1,inactive: 2.28%
12,COc1ccc(NC(=O)N2CCN(Cc3nc4ccc(C)cc4o3)CC2)cc1OC,inactive: 18.7%
13,O=C(O)CN(CCN(CC(=O)O)CC(=O)O)CCN(CC(=O)O)CC(=O)O,active: 70.2% and inactive: 6.83%
14,COc1ccc(-c2c(C#N)c(SCC(=O)Nc3ccc(C)c(C)c3)nc(C)c2C(=O)Nc2ccccc2)cc1OC,inactive: -18.8%
15,CC(C)(CO)Cc1cc(C(C)(C)C)c(O)c(C(C)(C)C)c1,inactive: -34.4%
16,CCCN1CCN(c2ncnc3sc(C(=O)Nc4ccc(OC(F)(F)F)cc4)c(C)c23)CC1,inactive: -23.5%
17,CC1CCN(c2nc3ccccc3nc2SCC(=O)Nc2ccccc2C(C)C)CC1,inactive: -11.8%
18,Cc1nnc(N2CCCC(C(=O)Nc3cc(F)ccc3F)C2)c2nn(-c3ccccc3)c(C)c12 (configuration not stated),inactive: 2.62%
19,CCCn1cnc2c1c(=O)n(CCCCC(C)=O)c(=O)n2C,inactive: 14.1% and inactive: -1.37%
20,CCCCC(=O)OCc1cc(=O)n2nc(C3CC3)sc2n1,inactive: 15.5%
21,CC(=O)c1ccc(NC(=O)Cn2c(=O)nc(-c3ccccc3)c3ccccc32)cc1,inactive: -12.1%

row,SMILES,activation
1,O=C(CS(=O)(=O)c1cccc2nsnc12)N1CCN(c2ccc(F)cc2)CC1,inactive: 11.4%
2,COc1cc(NC(=O)COCc2cc(-c3ccc4c(c3)OCO4)on2)c(OC)cc1Cl,inactive: 0.779%
3,CCOc1ccc(C(=O)c2cn(CC(=O)Nc3ccc(C)c(Cl)c3)c3ccc(OCC)cc3c2=O)cc1,inactive: -4.9%
4,CCCCN(CC)CCCNC(=O)c1ccc2c(c1)N(Cc1ccc(C)cc1)C(=O)c1ccccc1S2,inactive: -1.36%
5,Cc1cc(-c2ccc(C)c(S(=O)(=O)Nc3ccc(C)c(N(C)C)c3)c2)on1,inactive: -20.9%
6,CCOc1ccc(CCNC(=O)c2cc3n(n2)CCCN(Cc2ccc(C)cc2)C3=O)cc1OCC,inactive: 18.7%
7,O=C(NC1(C(F)(F)F)N=C(c2ccccc2)N(Cc2ccccc2)C1=O)c1ccc(F)cc1 (configuration not stated),inactive: 10.7%
8,CCCCCCCCCCCCCCSCC(=O)O,inactive: -2.54%
9,O=C(CCCc1nc(-c2ccc(Cl)cc2)no1)NCc1ccco1,inactive: 15%
10,Cn1cnc(S(=O)(=O)N2CCC(C(=O)Nc3ccc(OC(F)(F)F)cc3)CC2)c1,inactive: -4.19%
11,CCN(CC)c1cc(NC2CCCCC2)c2c3c(onc13)-c1ccccc1C2=O,inactive: -33.3%
12,CC1CCN(S(=O)(=O)c2ccc3c(c2)N(CC(=O)N(C)Cc2ccccc2)C(=O)CO3)CC1,inactive: -25.6%
13,O=C(c1ccc2c(c1)N(Cc1ccccc1)C(=O)c1ccccc1S2(=O)=O)N1CCC(Cc2ccccc2)CC1,inactive: -8.72%
14,Cc1cc(C)c(NC(=O)Cn2nnc3sc4c(c3c2=O)CCC(C(C)(C)C)C4)c(C)c1 (configuration not stated),inactive: 3.5%
15,O=c1c2sc3ccccc3c2n(Cc2cccc(Cl)c2)c(=O)n1Cc1ccc(F)cc1,inactive: -6.67%
16,COc1cccc(CNC(=O)C2CCCN(c3nn4cc(-c5ccc(C)cc5)nc4s3)C2)c1 (configuration not stated),inactive: -21.4%
17,COc1cc(C2c3c(-c4ccccc4O)n[nH]c3C(=O)N2Cc2ccncc2)cc(OC)c1OC (configuration not stated),inactive: -11.9%
18,CCCCN1C(C(=O)c2ccccc2)=C(OC(=O)CC)c2ccccc2S1(=O)=O,inactive: -51.4%
19,O=c1c2c3c(sc2nnn1CCCCOc1ccc(Cl)cc1)CCCC3,inactive: -4.87%
20,CCCSC1=NC2(CCN(C(=O)NC3CCCCC3)CC2)N=C1c1ccc(OC)cc1,inactive: -25.9%
21,COc1cc(-c2noc(-c3cc4cccc(C)c4oc3=O)n2)cc(OC)c1OC,inactive: -11.5%

row,SMILES,activation
1,COc1ccc(-c2nsc(NC(=O)c3oc4ccc(Cl)cc4c3C)n2)cc1,inactive: -0.728%
2,CCOc1ccccc1-n1c(N)c(C(=O)OC)c2nc3ccccc3nc21,inactive: -0.25%
3,O=C(Nc1ccc(F)cc1)c1nc(SCc2ccccc2F)ncc1Cl,inactive: -1.65%
4,Cc1nc(-c2cccc(F)c2)sc1CCNC(=O)Cc1ccc(F)cc1,active: 88.1%
5,N#C/C(=C/c1ccc(O)cc1)c1nc(-c2ccc(-c3ccccc3)cc2)cs1,inactive: -2.86%
6,Cc1ccc(OCCn2c(CNc3ccccc3C)nc3ccccc32)cc1,inactive: -8.8%
7,Cn1c(C(=O)NCc2ccccc2Cl)cc2sc(Cl)cc21,inactive: -7.61%
8,CO/N=C(\C(=O)N[C@@H]1C(=O)N2C(C(=O)O)=C(CSc3nc(=O)c(O)nn3C)CSC12)c1csc(N)n1 (some centres not stated),inactive: 11.2%
9,Cc1cc(NC(=O)c2cnn(-c3ccccc3)c2-n2cccc2)ccc1Br,inactive: -5.66%
10,COc1cccc(CNC(=O)CN(c2ccc(C)cc2)S(=O)(=O)N(C)C)c1OC,inactive: 22.2%
11,CCc1cccc(NC(=O)Cn2c(=O)n(CC3CCC(C(=O)NC)CC3)c(=O)c3sccc32)c1 (configuration not stated),inactive: -5.85%
12,COc1ccc(-c2csc3ncnc(Nc4ccc(OC)cc4OC)c23)cc1,inactive: -20%
13,COc1cccc(-c2nc3c(C#N)c[nH]n3c2NC2CCCCC2)c1,inactive: -12.3%
14,Cc1cccc(N(C)C(=O)C2CCC(CNS(=O)(=O)c3cccc4nsnc34)CC2)c1 (configuration not stated),inactive: -7.57%
15,N#CC1=C(N)N(c2ccc(Cl)cc2)C2=C(C(=O)CCC2)C1c1cc(CN2CCOCC2)cs1 (configuration not stated),inactive: -5.76%
16,COc1cc(NS(=O)(=O)c2cc(Br)cc3c2N(C(C)=O)C(C)C3)cc(OC)c1 (configuration not stated),inactive: 7.96%
17,O=C(NC1CCCCC1)c1ccc2c(c1)N(Cc1ccc(F)cc1)C(=O)c1ccccc1S2(=O)=O,inactive: -25.4%
18,COc1cccc(CNC(=O)Cn2c(=O)cc(C)c3c(C)nn(C)c32)c1OC,inactive: 36.3%
19,CCc1ccc(NCc2cc3cc4c(cc3n(CC(=O)Nc3ccc(OC)cc3)c2=O)OCO4)cc1,inactive: -67.6%
20,Cn1c(SCC(=O)N2CCOCC2)ncc(C(=O)Nc2ccc(F)cc2)c1=O,inactive: -4.79%
21,CCc1ccc(C2c3c(-c4cc(C)ccc4O)n[nH]c3C(=O)N2CCO)cc1 (configuration not stated),inactive: -1.07%

row,SMILES,activation
1,CCOC(=O)c1c(S(=O)(=O)NCC(=O)Nc2cccc(SC)c2)c(C)n(C)c1C,inactive: -11.9%
2,CCCSc1nc2sc3c(c2c(=O)n1-c1ccc(C)cc1)CCCC3,inactive: 0.357%
3,Cn1c(=O)c2c(ncn2CCO)n(C)c1=O,inactive: 1.03%
4,CC1=C(c2ccc(C(C)C)cc2)S(=O)(=O)NC1=NCc1ccc(OC(C)C)cc1,inactive: -12.7%
5,COc1ccc(NC(=O)CCCS(=O)(=O)c2nc(-c3ccccc3OC)cc(C(F)(F)F)n2)c(OC)c1,inactive: 27.1%
6,CC1CCN(CCCNC(=O)CN2C(=O)CSc3ccc(S(=O)(=O)N4CCCCC4)cc32)CC1,inactive: -20%
7,COc1ccc(C(C)NC(=O)CN(c2cc(OC)ccc2OC)S(=O)(=O)c2ccccc2)cc1 (configuration not stated),inactive: -17.2%
8,Cc1ccc(CNC(=O)C2CCCN(c3nc4ccccc4n4cccc34)C2)cc1 (configuration not stated),inactive: -40.7%
9,COCCn1c(CNC(=O)c2ccccc2C)nc2cccnc21,inactive: -8.84%
10,Cc1ccc(C)c(CN2CCC(CNC(=O)C(CC(C)C)N3Cc4ccccc4C3=O)CC2)c1 (configuration not stated),inactive: -21.6%
11,COc1ccc(NC(=O)Nc2cccc(-c3noc(C)n3)c2)cc1,inactive: -6.01%
12,O=C(c1cccs1)N1CCCc2cc(NS(=O)(=O)c3ccc(Br)cc3)ccc21,inactive: -17.7%
13,CCc1cccc(C)c1NC(=O)C1CCN(S(=O)(=O)c2cc(Br)cc3c2N(C(C)=O)CC3)CC1,inactive: -0.323%
14,Brc1cccc(-c2nn(-c3ccccc3)c3c2cnc2cc4c(cc23)OCO4)c1,inactive: 5.6%
15,O=C(NCc1ccccc1Cl)c1ccc2c(c1)ncn2-c1cccc(F)c1,inactive: -13.1%
16,COc1ccc(-n2c(CC3C(=O)Nc4ccc(C)cc43)nc3ccccc3c2=O)cc1 (configuration not stated),inactive: -4.76%
17,COc1cccc(-n2ccnc2SCC(=O)Nc2cccc3ccccc23)c1,inactive: -8.92%
18,COc1ccc(-c2oc3ncn4nc(-c5ccccc5OC)nc4c3c2-c2ccc(OC)cc2)cc1,inactive: -12.9%
19,COc1cccc(CNC(=O)Nc2cn(CC(C)C)c(=O)c3ccccc23)c1,inactive: -62.8%
